Laboratory results as given in PubChem BioAssay (NCATS).
Values joined by “and” are separate entries in the source; they are usually repeats but may differ in a detail not shown here. Equal entries are not always repeated. The inconclusive results got no clear call from the source; some entries with a clear call stand among them for comparison. For some assays here: Potencies of inconclusive entries are doubtful fits and often do not repeat. Active and inactive are the calls of the source. Unless noted, calls follow the shape of the dose curve; as a rule, active = well fitted curve in the direction sought with a large enough effect; inconclusive = small, poorly fitted or top-dose-only effect, or another doubt; inactive = no such curve, though single readings can be large; an effect the other way counts as inactive or inconclusive.

How the values were obtained:
[1] = biological target: 3',5'-cyclic-AMP phosphodiesterase 4B (Homo sapiens) (UniProt Q07343); test: qHTS Assay for Inhibitors of PDE-IV (AID 607; active = well fitted activation curve with a large enough effect in the main read-out, with a control signal flat, not every such curve was filed as active; inconclusive = small, poorly fitted or top-dose-only effect, or effect the other way, or a change in a side signal; also: potency is read from the fitted curve at half-maximal effect)
Sequence of UniProt Q07343 (Q07343 whole entry, looked up): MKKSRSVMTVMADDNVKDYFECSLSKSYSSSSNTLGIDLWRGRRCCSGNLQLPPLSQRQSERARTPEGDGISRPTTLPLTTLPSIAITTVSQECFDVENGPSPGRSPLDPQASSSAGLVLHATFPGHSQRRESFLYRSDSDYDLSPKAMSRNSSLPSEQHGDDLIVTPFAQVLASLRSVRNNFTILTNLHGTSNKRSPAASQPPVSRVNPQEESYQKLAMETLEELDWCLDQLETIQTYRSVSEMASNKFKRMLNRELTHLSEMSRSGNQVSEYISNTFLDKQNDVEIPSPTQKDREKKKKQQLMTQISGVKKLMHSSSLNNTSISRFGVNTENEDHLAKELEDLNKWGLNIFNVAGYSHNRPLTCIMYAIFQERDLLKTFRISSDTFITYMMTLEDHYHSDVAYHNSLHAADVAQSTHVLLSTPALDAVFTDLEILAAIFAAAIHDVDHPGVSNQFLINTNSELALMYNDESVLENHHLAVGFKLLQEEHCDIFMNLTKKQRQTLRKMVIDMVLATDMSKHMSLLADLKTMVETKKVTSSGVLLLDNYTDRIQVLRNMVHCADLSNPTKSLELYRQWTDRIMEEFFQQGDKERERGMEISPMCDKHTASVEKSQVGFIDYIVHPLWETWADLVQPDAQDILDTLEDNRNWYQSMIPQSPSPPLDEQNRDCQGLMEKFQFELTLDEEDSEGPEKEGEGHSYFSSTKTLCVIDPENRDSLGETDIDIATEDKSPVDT
In short: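 Cell-based read-out of cAMP via a modified cyclic nucleotide-gated channel and membrane potential dye (535/590 nm) in HEK293 cells expressing PDE4 endogenously. Compounds tested up to 22.9 uM final; 100 uM RO 20-1724 reference.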

[2] = Cell Viability - HUV-EC-C (AID 542); also: nearly all actives have a fitted effect of over 35% in size; also: potency is read from the fitted curve at half-maximal effect; as to activity change, negative = cytotoxicity: % is scaled to controls: 0 for no effect and ±100 for the full control effect
In short: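 HUV-EC-C normal human vascular endothelial cells, 1000 cells/well, pre-incubated 5 hr at 37 °C, then exposed to compounds for 40 hr at 37 °C in complete medium. Viability measured as intracellular ATP by CellTiter-Glo luminescence; AC50 from Hill fits.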

[3] = Cell Viability - Mesenchymal (AID 546);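 also: cells exposed to compound for 40 hours before reading; 0% = DMSO only and -100% = 100 µM tamoxifen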
In short: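 AC50 values reflect the drop in intracellular ATP in a human kidney mesenchymal line derived from normal glomeruli. Treatment lasts 40 hr at 37 °C in complete medium, and the signal comes from CellTiter-Glo luminescence.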

[4] = biological target: Cytochrome P450 2C9 (Homo sapiens) (UniProt P11712); test: qHTS Assay for Inhibitors and Substrates of Cytochrome P450 2C9 (AID 883); also: % is scaled to controls: 0 for no effect and ±100 for the full control effect; nearly all actives have a fitted effect of over 60% in size
Sequence of UniProt P11712 (P11712 whole entry, looked up): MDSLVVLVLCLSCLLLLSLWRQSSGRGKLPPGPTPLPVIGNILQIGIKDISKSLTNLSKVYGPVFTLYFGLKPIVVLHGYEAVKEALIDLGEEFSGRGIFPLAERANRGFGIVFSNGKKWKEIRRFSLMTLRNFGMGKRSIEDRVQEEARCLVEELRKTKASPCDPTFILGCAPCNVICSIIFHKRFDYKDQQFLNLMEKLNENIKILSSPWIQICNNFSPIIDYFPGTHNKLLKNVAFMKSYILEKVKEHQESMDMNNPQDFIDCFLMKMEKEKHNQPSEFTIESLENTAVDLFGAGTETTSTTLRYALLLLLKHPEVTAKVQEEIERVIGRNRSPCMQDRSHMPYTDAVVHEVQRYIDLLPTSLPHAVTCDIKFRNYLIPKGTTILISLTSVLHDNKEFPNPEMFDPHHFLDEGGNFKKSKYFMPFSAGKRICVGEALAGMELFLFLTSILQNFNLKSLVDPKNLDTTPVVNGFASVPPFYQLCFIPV
Method: NIH Molecular Libraries Screening Centers Network [MLSCN] NIH Chemical Genomics Center [NCGC] MLSCN Grant: None NCGC Assay Overview: The P450 gene superfamily is involved in the metabolism and clearance of xenobiotics. This assay used human CYP2C9 to measure the hydroxylation of deoxyluciferin (Luciferin-H; P450 Glo-Buffer) to luciferin. The luciferin is then measured by luminescence after the addition of a luciferase detection reagent. Luciferin-H concentration in the assay was equal to its Michaelis constant KM for CYP2C9. Inhibitors and some substrates limit the production of luciferin, and decrease measured luminescence.
NCGC Assay Protocol Summary: Two uL of enzyme and substrate mix (final concentrations: 10nM CYP2C9, 100uM Luciferin-H, 25mM KPO4) were dispensed into a white, solid bottom 1536-well microtiter plate. 23nL of compound was transferred by a pin tool. The plate was incubated at 37C for 10 min. Two uL of an NADPH regeneration solution (Promega supplied reagent) was dispensed and the reaction was allowed to continue for 60 min at 37C. Then the reaction was stopped by reconstituted P450 Glo-Buffer. After another 20 min of incubation the plate was read on the ViewLux (Perkin Elmer) at 60 sec exposure and 2x2 binning. This protocol was carried out with Promega-Glo reagents and further information can be found at http://www.promega.com/tbs/tb325/tb325.pdf. Data were normalized to the to AC100 inhibition (57uM sulphaphenazole). Keywords: P450, CYP2C9, Luciferase, MLSMR, MLSCN, NIH Roadmap, qHTS, NCGC

[5] = qHTS Assay for Identification of Small Molecule Antagonists for NFkB Signaling Pathway (AID 895; active = well fitted inhibition curve with a large enough effect in the signal ratio, with a control signal flat, not every such curve was filed as active; inconclusive = small, poorly fitted or top-dose-only effect, or effect the other way, or a change in a side signal; the % refers to the signal ratio; also: % is scaled to controls: 0 for no effect and ±100 for the full control effect); conditions: NFkB beta-lactamase reporter cells, FRET ratio 460/530, stimulated with 10 pM TNF alpha; activity change, negative = inhibition: at 38.3 µM (top of the series)
In short: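 Beta-lactamase reporter read-out (460 and 530 nm emission ratio, 405 nm excitation, 2 hrs substrate loading RT) after 5 hr stimulation with 10 pM TNF alpha in compound-treated NFkB-bla ME-180 cells in low-serum medium.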

[6] = Cell Viability - NIH 3T3 (AID 541); conditions: NIH 3T3 cell viability, qHTS; activity change, negative = cytotoxicity: at 92.2 µM (top of the series); also: nearly all actives have a fitted effect of over 25% in size; also: potency is read from the fitted curve at half-maximal effect;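 as to activity change, negative = cytotoxicity: plate controls were DMSO alone for no effect and tamoxifen positive control for full effect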
In short: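 NIH 3T3 mouse embryo fibroblasts (1000 cells/well) were plated in complete medium and treated with compound for 40 hr at 37 °C. Viability was read as intracellular ATP by CellTiter-Glo luminescence; AC50 values came from Hill-equation fits of concentration-response data.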

[7] = Cell Viability - H-4-II-E (AID 543); conditions: H-4-II-E rat hepatoma viability; also: potency is read from the fitted curve at half-maximal effect; nearly all actives have a fitted effect of over 35% in size
In short: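 Rat hepatoma H-4-II-E cells (1500/well) were plated, incubated 5 hr at 37 °C, then exposed to compounds for 40 hr at 37 °C. Cellular ATP was read by CellTiter-Glo luminescence; AC50 came from Hill-equation fits of concentration-response data.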

[8] = Cell Viability - N2a (AID 540); conditions: N2a mouse neuroblastoma cell viability; also: potency is read from the fitted curve at half-maximal effect; nearly all actives have a fitted effect of over 45% in size
In short: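 Mouse neuroblastoma N2a cells (1500/well) were preincubated 5 hr at 37 °C, then exposed to compounds for 40 hr at 37 °C in complete medium. Viability was read as intracellular ATP by CellTiter-Glo luminescence; AC50 from Hill fits.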

[9] = Cellular Toxicity (caspase-3) Jurkat (AID 655); conditions: Jurkat caspase-3 activation, luminescence;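 also: potency is read from the fitted curve at half-maximal effect; cells exposed to compound for 16 h at 37 °C before reading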
In short: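 Luminescent caspase-3/7 readout (aminoluciferin substrate cleavage) in human T-cell leukemia Jurkat cells after 16 hr compound exposure. Concentration-response normalized to DMSO and 100 uM tamoxifen; AC50 by standard Hill equation.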
Tags tell the direction and shape of the fitted curve.

Question: With `COc1c2occc2cc2ccc(=O)oc12` as the molecule, how does the Potency [1] read?
Answer: inconclusive: 7.55 µM [activator, partial curve]

Question: With `CCN(CC)CCOc1ccc(Cc2ccccc2)cc1` as the molecule, how does the Potency [1] read?
Answer: inconclusive: 9.51 µM [rising, partial curve]

Question: Which Potency [2] does the source give for `O=c1[nH]cnc2[nH]ncc12` here?
Answer: inactive

Question: And the Potency [3]?
Answer: inactive

Question: And the Potency [4]?
Answer: inactive

Question: And the activity change, negative = inhibition [5]?
Answer: inconclusive: -9.81%

Question: With `COc1ccc(CCN(C)CCCC(C#N)(c2ccc(OC)c(OC)c2)C(C)C)cc1OC` (stereo not given) as the molecule, how does the activity change, negative = cytotoxicity [6] read?
Answer: inconclusive: -39.5%

Question: What about the Potency [7] of the same molecule?
Answer: inconclusive: 39.8 µM [falling, partial curve]

Question: And the Potency [3]?
Answer: inactive

Question: For `CCCCC[C@H](O)C=C[C@H]1[C@H](O)CC(=O)[C@H]1CCCCCCC(=O)O`, which Potency [1] is on record?
Answer: inconclusive: 0.19 µM [rising, full curve]

Question: For `C=C1c2cccc(O)c2C(O)=C2C(=O)[C@@]3(O)C(O)=C(C(N)=O)C(=O)[C@@H](N(C)C)[C@@H]3[C@@H](O)[C@H]12`, which Potency [1] is on record?
Answer: inactive

Question: Which Potency [1] does the source give for `CN(C)CCN(Cc1ccc(Cl)cc1)c1ccccn1` here?
Answer: inconclusive: 12 µM [activator, partial curve]

Question: With `CC(=O)N1CCN(c2ccc(OC[C@H]3CO[C@](Cn4ccnc4)(c4ccc(Cl)cc4Cl)O3)cc2)CC1` as the molecule, how does the Potency [1] read?
Answer: inconclusive: 19 µM [inhibitor, single point]

Question: Which results are given for `COc1cc2c(c(OC)c1OC)-c1ccc(OC)c(=O)cc1[C@@H](NC(C)=O)CC2`?
Answer: Potency [8]: inconclusive: 0.00631 µM [falling, full curve, poor fit]; Potency [6]: inconclusive: 0.00126 µM [falling, full curve, poor fit]; Potency [2]: inconclusive: 0.00251 µM [falling, full curve, poor fit]; Potency [7]: inconclusive: 0.2 µM [falling, full curve, poor fit]; Potency [1]: inactive; Potency [9]: active: 3.98 nM and active: 3.16 nM; Potency [5]: inactive
